Experimental data published in patent publication EP1500391A1, “Therapeutic use of bicycloheptane derivatives” (NEURO3D, priority 2003, dated 2005).

Test system: Na+ channel (site 2)
Settings: inhibition of control specific binding; at 1µM (concentration printed only in head of Cpd A); rat cerebral cortex

| Structure (SMILES) | %inhibition Na channel [%] |
| --- | --- |
| CN(C)CCO[C@@]1(c2ccccc2)C[C@@H]2CC[C@@]1(C)C2(C)C [Cpd A, (1S,2R,4S)-(+)-2-[N,N-(dimethylaminoethoxy)]-2-phenyl-1,7,7-trimethyl-bicyclo[2.2.1]heptane] | 50 |
| CN(C)CCO[C@]1(c2ccccc2)C[C@H]2CC[C@]1(C)C2(C)C [Cpd B, (1R,2S,4R)-(-)-2-[N,N-(dimethylaminoethoxy)]-2-phenyl-1,7,7-trimethyl-bicyclo[2.2.1]heptane] | 65 |
